These results are taken from the supplement of paper PMC10600219.

SMILES strings stand for the structures. Structures can show the parent of a compound that is named as a salt. In all, about 2,800 compounds were measured (“cell viability relative to vehicle”: median about 1.1, lowest 2% from about 0.19 on). This is one part of the list.

For the experiment, the system named is NCI-H2228 parental. Kind of experiment: cell viability relative to vehicle (fraction of vehicle); NCI-H2228 is an ALK-positive lung cancer line and DTP means drug-tolerant persister; higher = less growth inhibition. As to conditions: 100 nM; treatment time 6 days. The method in brief: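 Each value is viability relative to vehicle-treated cells, measured as ATP with the CellTiter-Glo 3D Cell Viability Assay. Parental NCI-H2228 cells and drug-tolerant persisters (1000 nM targeted drug, 13 days) in 384-well plates received the 3114-agent TargetMol anti-cancer compound library at 100 nM, or DMSO, and were read 6 days later.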
Turning to `O=C1NCCc2[nH]c(-c3ccncc3)cc21`, the cell viability was found to be 1.08.
In the case of `CC(C)=CCC[C@](C)(O[C@@H]1O[C@H](CO)[C@@H](O)[C@H](O)[C@H]1O)[C@H]1CC[C@]2(C)[C@@H]1[C@H](O)C[C@@H]1[C@@]3(C)CC[C@H](O)C(C)(C)[C@@H]3[C@@H](O[C@@H]3O[C@H](CO)[C@@H](O)[C@H](O)[C@H]3O)C[C@]12C` [Ginsenoside Rg1] it was 1.07; in that of `Cc1noc(-c2ccc(-c3ccc(CC(=O)O)cc3)cc2)c1NC(=O)O[C@H](C)c1ccccc1`, 1.05.
To `O=c1sn(-c2cccc3ccccc23)c(=O)n1Cc1ccccc1` [Tideglusib] belongs 0.799; to `O=c1cc(-c2ccccc2)oc2cc(O)cc(O)c12` [Chrysin], 1.3.
Regarding `Cc1cc(OCCCS(C)(=O)=O)cc(C)c1-c1cccc(COc2ccc3c(c2)OC[C@H]3CC(=O)O)c1`, the cell viability was determined as 1.06.
To `CCN(CC)C(=S)SSC(=S)N(CC)CC` [Disulfiram] belongs 0.753.
Consider `O=C1C(=Cc2cccnc2)C(=O)c2ccccc21`, for which the cell viability stood at 1.1.
Consider `C=C[C@@]1(C)CC(=O)[C@]2(O)[C@@]3(C)[C@@H](O)CCC(C)(C)[C@@H]3[C@H](O)[C@H](OC(C)=O)[C@@]2(C)O1` [Forskolin], for which the cell viability is 1.12.
In the case of `O=C(O)[C@@H]1CSCN1` [Thioproline] it was 1.03; in that of `O=C(CCCCCN1C(=O)c2cccc3cccc(c23)C1=O)NO` [Scriptaid], 0.959; in that of `Cn1cc(C[C@@H](N)C(=O)O)c2ccccc21` [Indoximod], 1.11.
In the case of `COc1cc2/c(=N/c3ccc(Br)cc3F)nc[nH]c2cc1OCC1CCN(C)CC1` [Vandetanib] it was 1.09; in that of `C[C@H](N)[C@H](O)c1cccc(O)c1` [Metaraminol bitartrate], 0.905.
To `CC1CCC2(OC1)OC1CC3C4CCC5CC(O)CCC5(C)C4CCC3(C)C1C2C` (configuration not stated) [Spirostan-3-ol] belongs 1.03; to `Cn1cc(-c2nc(N[C@@H]3CCCC[C@@H]3N)c(F)c3c2C(=O)NC3)cn1` [TAK-659 hydrochloride], 1.01; to `CCN(CC)CCOC(=O)C(Cc1cccc2ccccc12)CC1CCCO1` (configuration not stated) [Nafronyl oxalate], 0.983.
In the case of `CC(C)NCC(O)COc1ccc(COCCOC(C)C)cc1` (racemic) [(±)-Bisoprolol hemifumarate], the cell viability came out at 1.14.
For the molecule `CC1(C)S[C@@H]2[C@H](NC(=O)C(C(=O)O)c3ccccc3)C(=O)N2[C@H]1C(=O)O` (some centres not stated) [Carbenicillin disodium], the cell viability came out at 1.02.
To `C[C@H](CCC(=O)NCC(=O)O)[C@H]1CC[C@H]2[C@@H]3[C@H](O)C[C@@H]4C[C@H](O)CC[C@]4(C)[C@H]3CC[C@]12C` [Glycochenodeoxycholic Acid] belongs 1.02.
To `COc1cc(O)c2c(=O)c(O[C@@H]3O[C@H](CO)[C@@H](O)[C@H](O)[C@H]3O)c(-c3ccc(O[C@@H]4O[C@H](CO)[C@@H](O)[C@H](O)[C@H]4O)cc3)oc2c1` [Complanatoside] belongs 1.07; to `CC(C)N(CCCNC(=O)Nc1ccc(C(C)(C)C)cc1)C[C@H]1O[C@@H](n2cc(Br)c3c(N)ncnc32)[C@H](O)[C@@H]1O`, 1.16.
Consider `C=C1CC[C@@H]2[C@](C)(CO[C@@H]3O[C@H](CO)[C@@H](O)[C@H](O)[C@H]3O)CCC[C@@]2(C)[C@@H]1CCC1=CCOC1=O` [Neoandrographolide], for which the cell viability amounted to 1.08.
In the case of `Cc1cc(NS(=O)(=O)c2ccc(N)cc2)no1` [Sulfamethoxazole] it was 1.09; in that of `Nc1[nH]nc2nnc(-c3c(-c4ccccc4)nn4ccccc34)cc12`, 1.04.
As for `C[C@@H]1CC(=O)Nc2cccc(-c3ccc4c(c3)c(-c3cnn(C)c3)nn4C)c2N1`, the cell viability is 1.12.
For the molecule `COc1cc(C(C)=O)ccc1OCCCN1CCC(c2noc3cc(F)ccc23)CC1` [Iloperidone], the cell viability is 1.24.
Take `CCN(CC)CCNC(=O)c1c(C)[nH]c(/C=C2\C(=O)Nc3ccc(-c4csc(-c5ccccc5)n4)cc32)c1C` [Amcasertib]: the cell viability was 1.09.
Take `Cc1cccc(C)c1N(CC(=O)Nc1ccc(-c2ncon2)cc1)C(=O)C1CCS(=O)(=O)CC1` [Amenamevir]: the cell viability was found to be 0.857.
As for `COc1ccc(/C=C\c2cc(OC)c(OC)c(OC)c2)cc1O` [Combretastatin A4], the cell viability came out at 0.294.
`O=C([O-])CN(CCN(CC(=O)[O-])CC(=O)O)CC(=O)[O-].[Na+].[Na+].[Na+]` [Edetate Trisodium]: the cell viability is 1.13.
As to `c1cc(-c2cnn3cc(-c4ccc(N5CCNCC5)cc4)cnc23)c2cccnc2c1`, the cell viability worked out at 1.03.
In the case of `NCCCC[C@@H]1NC(=O)[C@@H](Cc2ccccc2)NC(=O)[C@H](CC(=O)O)NC(=O)CNC(=O)[C@H](CCCN=C(N)N)NC1=O` [Cyclo (-RGDfK)] it was 1.09.
`Cn1c(=O)c(Oc2ccc(F)cc2F)cc2cnc(NC(CCO)CCO)nc21` [Pamapimod]: the cell viability was determined as 1.05.
To `N#Cc1ccnc(Nc2cc(C3CCN(C4COC4)CC3)cc(N3CCC(F)(F)C3)n2)c1` belongs 0.96; to `CC(C(=O)O)c1cccc(C(=O)c2ccccc2)c1` (configuration not stated) [Ketoprofen], 1.22.
As to `O[C@@H]1[C@H](O)[C@H](O)CO[C@H]1O` [D-(-)-Ribose], the cell viability came out at 1.09.
To `CCCCN(Cc1ccc(C(=O)NO)cc1)C(=O)Nc1ccccc1` [Nexturastat A] belongs 0.964; to `Cn1c(=O)cc(C(=O)Nc2ccc3c(c2)OCCO3)c2ccccc21`, 0.98; to `CNC(=O)c1ccccc1Nc1nc(Nc2ccc(N3CCOCC3)cc2OC)ncc1Cl`, 0.484.
To `CC1=C(C(=O)Nc2cc3cn[nH]c3cc2F)C(c2ccc(C(F)(F)F)cc2)CC(=O)N1` (configuration not stated) belongs 1.08.
Take `O=NN(CCCl)C(=O)NCCCl` [Carmustine]: the cell viability was found to be 1.16.
In the case of `CCOC(=O)c1ncn2c1CN(C)C(=O)c1cc(F)ccc1-2` [Flumazenil] it was 1.09; in that of `COc1cc(/C=C/c2ccc(O)cc2)cc(OC)c1` [Pterostilbene], 0.953.
Take `Cc1cc(C(=O)Nc2nc3cccc(Cl)c3n2[C@@H]2CCCCN(C(=O)/C=C/CN(C)C)C2)ccn1` [Nazartinib]: the cell viability turned out to be 1.09.
To `Cn1c(=O)n(-c2ccc(C(C)(C)C#N)cc2)c2c3cc(-c4cnc5ccccc5c4)ccc3ncc21` [Dactolisib] belongs 0.258; to `C[C@@H]1CC[C@]2(C(=O)O)CC[C@]3(C)C(=CCC4[C@@]5(C)CC[C@H](O[C@@H]6OC[C@H](O)[C@H](O)[C@H]6O)C(C)(C)C5CC[C@]43C)[C@@H]2[C@]1(C)O` (some centres not stated) [Ziyuglycoside II], 1.12.
